Results reported in article PMC12136788.
The list shows a part of the results.

B1: chrX:24560996:24561098:-|3pUTR|ENSG00000102230|unk|total|mutant (ssRNA)
RNA: GGGAGUUCUACAGUCCGACGAUCACUCAAGACUUUUUACAGAGAACUGUGGGCUCAGUUAUGAUCUCAGCAUCUGAAUGGUCCCGGCCGUAUCACCAUUAUCUCUGGCCCCCGGUUUGCCAAGCCGGAUGAAGACUCUAAGUGCAACAGAGGAUUGAGCAUCA
B2: ENSG00000196628:stop:overlap|stop_codon|ENSG00000196628|stop_codon|NA|stop_codon (ssRNA)
RNA: GGGAGUUCUACAGUCCGACGAUCCAACCUCCACCUCCCAGGUUCAAGCUAUCCUCCUGCCUCAGCCUCCUGAGUACCCGGGAUAGGCGUUUGUGUGAUUUUGCUAAAAUGCAUCACCAACAGCGAAUGGCUGCCUUAGGGACGCAACAGAGGAUUGAGCAUCA
B3: chr7:108149816:108149915:-|CDS_3pUTR|ENSG00000091129|msi1_unk|total|mutant (ssRNA)
RNA: GGGAGUUCUACAGUCCGACGAUCGUCAACGCCAUGAAUUCCUUUGUUUAAUUUUUAAGCUCUUUGCCAAUAUUCCAUUUCUCCCGAAUGUUUAUCCUAAGCACUUGUUUGUCAGCCCUCUCAUACUAUGAACAUAUGGGCCGACAACAGAGGAUUGAGCAUCA
B4: chrX:13662881:13662996:+|CDS|ENSG00000176896|unk|total|mutant (ssRNA)
RNA: GGGAGUUCUACAGUCCGACGAUCUCGAAUUCUCUGUCUUCCCAAGACGUUGCAAAACUCAGUGAAAUGAUUGUGCCUGAAAACCGAGCCAUUCAAUUGAAACCUAAGGAAGAGCAUUUUGGGGAUGGUGACCCUGAAUCCACUCAACAGAGGAUUGAGCAUCA
B5: chr6:36232219:36232320:+|3pUTR|ENSG00000096070|unk|total|mutant (ssRNA)
RNA: GGGAGUUCUACAGUCCGACGAUCGCCCGGGAAGGACAUGGUGUAUAUAAUUGUAAAAUACUGUUCUAAAUUAUUCAGGCCUACCGUUUCCAUUACUGGAGUCCUCCAUUGUGUGGCCACACAGUGUCGUUGAUUUAAAGGAGCCAACAGAGGAUUGAGCAUCA
B6: ENSG00000070961:be:win_2601|CDS|ENSG00000070961|bound_else_gene|NA|bound_elsewhere_windowed (ssRNA)
RNA: GGGAGUUCUACAGUCCGACGAUCGAUUGUUGCUUUUACGGGCGCCUGCAUUACUCAAGACUCACCGCUUAAGGCUGUGCAGAUGCUGUGGGUAAACCUCAUAAUGGAUACACUCGCUUCCCUGGCUCUGGCAACGGAACCACCCAACAGAGGAUUGAGCAUCA
B7: ENSG00000136451:be:win_4001|3pUTR|ENSG00000136451|bound_else_gene|NA|bound_elsewhere_windowed (ssRNA)
RNA: GGGAGUUCUACAGUCCGACGAUCGUCAUGUCUUCUUUUGGGAGGGAGAGAGUCGAUGGCAGGAGGGGGUUUUGGGUGGGCCACUGAAAAGGGGUACCGAAUAGGUUGUGUGAUGAAAUUCUGUGUCUUGGAACUGGAAUUGAGCAACAGAGGAUUGAGCAUCA
B8: chr12:111449306:111449407:+|3pUTR|ENSG00000111252|msi1|total|mutant (ssRNA)
RNA: GGGAGUUCUACAGUCCGACGAUCGCUGGCUUGGUGCCCUCCAAGCAUCUAAUGGCUUAUUAAAUUAUCCCACAAGUGGGUUUCCGGCUCCUUUUUUGAGCCAAAAUGGAAGCUGGGAAUCUGGUGCCAUAACUAAUGAGAAACCAACAGAGGAUUGAGCAUCA
B9: chrX:71240429:71240530:-|3pUTR|ENSG00000147130|msi1|FALSE|unique (ssRNA)
RNA: GGGAGUUCUACAGUCCGACGAUCGGCUUUGGGUUUCCUGACCCAUCCCGCAUAGGUAGAGCCUCUUGUUCCUAGGCAUGACCUAGGGAAAAACCCAGCUGCCUUCUCUGCCCUGUGCCCACUCCCUUCUCUACUCUUCCCCAGCAACAGAGGAUUGAGCAUCA
B10: chr10:78022286:78022401:-|CDS|ENSG00000148606|unk|total|mutant (ssRNA)
RNA: GGGAGUUCUACAGUCCGACGAUCAACACCGUAUCUCCAUUUCUGCCUUUCUUCGUUUCCACCGGAAAACUUGAAUCCCUCCGCCGUUCUGAAUUUAUUUAAACGAAUCCCAGCUGAAGAUGUUCCUCUACUUCUGAUGAACCCCAACAGAGGAUUGAGCAUCA
B11: chr3:128622278:128622381:-|CDS|ENSG00000163902|unk|total|mutant (ssRNA)
RNA: GGGAGUUCUACAGUCCGACGAUCAGCCAGGAUGAAGGCCGCCUGCAUCACAGAGCAGGUCUUGACCCUGGUCAACAAGAGAACCGGCCUUUACCGUCACUUUGACGAGACCGUCAACCGGUACAAGCAAUCCCGGGACAUCUCCAACAGAGGAUUGAGCAUCA
B12: chr19:17405403:17405546:-|CDS|ENSG00000130303|unk|total|mutant (ssRNA)
RNA: GGGAGUUCUACAGUCCGACGAUCUGACUAUUGCAGAGUGCCCAUGGAAGACGGGGAUAAGCGCUGUAAGCUUCUGCUGGGGACCGGAAUUCUGGUGCUCCUGAUCAUCGUGAUUCUGGGGGUGCCCUUGAUUAUCUUCACCAUCAACAGAGGAUUGAGCAUCA
B13: chr12:20680103:20680206:+|CDS|ENSG00000172572|unk|FALSE|unique (ssRNA)
RNA: GGGAGUUCUACAGUCCGACGAUCCUUACAGAACCACAAGAUGUGGAAGAAAGUCAUUGAAGAGGAGCAACGGUUGGCAGGCAUAGAAAAUCAAUCCCUGGACCAGACCCCUCAGUCGCACUCUUCAGAACAGAUCCAGGCUAUCAACAGAGGAUUGAGCAUCA
B14: chr4:127885990:127886091:+|CDS|ENSG00000142731|msi1|FALSE|unique (ssRNA)
RNA: GGGAGUUCUACAGUCCGACGAUCAUUACUUAUCGGGAGACCACCCUUCGACACUGACACAGUCAAGAACACAUUAAAUAAAGUAGUAUUGGCAGAUUAUGAAAUGCCAUCUUUUUUGUCAAUAGAGGCCAAGGACCUUAUUCACAACAGAGGAUUGAGCAUCA
B15: chr7:41967724:41967825:-|CDS|ENSG00000106571|msi1|total|mutant (ssRNA)
RNA: GGGAGUUCUACAGUCCGACGAUCCCCCAUCAGCAACUAUUCCAACAGUGGGCUCGAGCUUCCUCUGACCGAUGGAGGCCGUACCGGAGACCUCAGUGCCAUCGAUGAAACCCCAAUCAUGGACUCAACCAUUUCCACUGCAACCAACAGAGGAUUGAGCAUCA
B16: ENSG00000116991:stop:overlap|stop_codon|ENSG00000116991|stop_codon|NA|stop_codon (ssRNA)
RNA: GGGAGUUCUACAGUCCGACGAUCCGACAGCUCAGCUGCGGAAAUUCACAGAAUGGUUUUUCACCACCAUCGACAAAAAAUCUUAGCCAAUCCGCACCUCAUCAAGGGACCACUGGGAAAUGCCCCUUGUCCCUUUGAAGUCACCAACAGAGGAUUGAGCAUCA
B17: ENSG00000136451:be:win_1101|CDS|ENSG00000136451|bound_else_gene|NA|bound_elsewhere_windowed (ssRNA)
RNA: GGGAGUUCUACAGUCCGACGAUCGAGACUGUGGGAAGAAGCUGUUAAAGCAAGGAAGAAAGAAGCUGCUAACCUGUGCCAAACCUCCACGGCUGCUACGACACCUGUGACUCUCACUACUCCAUUCAGUAUAACAUCCUCUGUCAACAGAGGAUUGAGCAUCA
B18: chr8:97276997:97277102:-|CDS|ENSG00000180543|unk|total|mutant (ssRNA)
RNA: GGGAGUUCUACAGUCCGACGAUCAUCCCGGGCUUCUGGGGGCAAGCAUUUCAGAACCAUCCCCAGCCCGCAUCCUUUCUGAACCGCCAAGAGAAAGAGGUACUGAGCUACUUAAACAGCUUGGAAGUGGAAGAGCUCGGCCUUCAACAGAGGAUUGAGCAUCA
B19: chr10:123166816:123166917:+|3pUTR|ENSG00000154473|unk|FALSE|unique (ssRNA)
RNA: GGGAGUUCUACAGUCCGACGAUCAAAAACUUAAAGGUAUAUUAGCAGGUUAGCCUUUGUUCUGUGGGAGAUCCAGGCCUUGUUAGAAGGACCAAGGCCAGAAUGCCCAGUUUAGCCUUAGCAUUCAAACCCUUCAUUGUUUUUCAACAGAGGAUUGAGCAUCA
B20: chr7:36452941:36453042:+|3pUTR|ENSG00000011426|msi1|FALSE|unique (ssRNA)
RNA: GGGAGUUCUACAGUCCGACGAUCGUCUUGAAGCAGCAACGUCUUUCAGGGGUUGGAGACAGAAACCCAUUCUCCAAUCUCAGUAGUUUUUUCGAAAGGCUGUGAUCAUUUAUUGAUCGUGAUAUGACUUGUUACUAGGGUACUCAACAGAGGAUUGAGCAUCA
B21: chr5:147393764:147393895:-|3pUTR|ENSG00000113657|msi1_unk|FALSE|overlapping (ssRNA)
RNA: GGGAGUUCUACAGUCCGACGAUCUCCAAUGUUACGCUCGCUUGCCUAGCUUUACGAAUAUUGCUUUGUUUUCUGUUUAUGCAUAGCCUUGAUUUGUUUGACUCCCCUCCCCCCAUUUACAUGCAUGCAAUCAGACAGGCCACUCAACAGAGGAUUGAGCAUCA
B22: chr19:42297191:42297292:-|CDS|ENSG00000079462|unk|FALSE|unique (ssRNA)
RNA: GGGAGUUCUACAGUCCGACGAUCCCGACAGGUGAACGAGCUGGUACGGGCGGCACUGGCUGGCCACCCUCGGGCCCACUUCCUAGAUGCCGACCCUGGCUUUGUGCACUCAGAUGGCACCAUCAGCCAUCAUGACAUGUAUGACAACAGAGGAUUGAGCAUCA

biological target: MSI1 full-length (mouse, UniProt Q61474 1-362); test: nsRBNS (natural sequence RNA bind-n-seq); RBNS binding buffer (assumed for nsRBNS): 25 mM Tris pH 7.5, 150 mM KCl, 3 mM MgCl2, 0.01% Triton X-100, 500 ug/ml BSA, 20 U/ml SUPERase-In, 4 C; UNK is unkempt and MSI1 is Musashi-1; names of the RNAs are library labels; protein concentration not given here; high values mean tight binding
UniProt Q61474, sequence (Q61474 whole entry): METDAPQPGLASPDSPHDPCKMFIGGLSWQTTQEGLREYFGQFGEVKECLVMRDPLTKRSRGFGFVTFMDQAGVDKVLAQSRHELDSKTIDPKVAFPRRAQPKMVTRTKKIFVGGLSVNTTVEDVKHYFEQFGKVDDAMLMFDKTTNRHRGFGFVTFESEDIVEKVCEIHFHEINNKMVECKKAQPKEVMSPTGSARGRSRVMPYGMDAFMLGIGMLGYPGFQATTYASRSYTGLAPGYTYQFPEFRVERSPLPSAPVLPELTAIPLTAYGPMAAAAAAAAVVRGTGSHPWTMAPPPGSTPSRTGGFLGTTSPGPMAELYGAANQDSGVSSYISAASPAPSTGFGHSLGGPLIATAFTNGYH

Binder | binding signal [enrichment R]
B1 | 0.37
B2 | 0.277
B3 | 0.895
B4 | 0.295
B5 | 0.837
B6 | 0.354
B7 | 0.709
B8 | 0.374
B9 | 0.654
B10 | 0.507
B11 | 0.233
B12 | 0.551
B13 | 0.531
B14 | 6.34
B15 | 0.513
B16 | 0.474
B17 | 0.715
B18 | 0.325
B19 | 5.77
B20 | 1.29
B21 | 0.623
B22 | 0.323
